# Measurements reported in the supplement of paper PMC8728848.
# Some of the results follow.
# How the values were obtained:
# Experiment in all cases: glycan array binding signal (z-score within array); higher = stronger binding
# Settings in all cases: glycan notation: IUPAC condensed, linker removed; mutation: Y228W
# [1] = target: Neu5Ac(a2-3)Gal(b1-4)GlcNAc(b1-3)[Neu5Ac(a2-3)Gal(b1-4)GlcNAc(b1-6)]GalNAc
# In short: (§1)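 Columns mapping to the same glycan were averaged after glycan names were converted to IUPAC-condensed notation. The data come from 3228 arrays in the Consortium for Functional Glycomics database, limited to those with an available protein sequence. Binding is reported as a within-array Z-score averaged across arrays of one protein sequence and across linkers.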
# [2] = target: Neu5Ac(a2-3)Gal(b1-4)GlcNAc(b1-6)GalNAc
# In short: as §1
# [3] = target: Neu5Ac(a2-3)Gal(b1-4)GlcNAc(b1-6)[Gal(b1-3)]GalNAc
# In short: as §1
# [4] = target: Neu5Ac(a2-3)Gal(b1-4)GlcNAc(b1-6)[Neu5Ac(a2-3)Gal(b1-3)]GalNAc
# In short: as §1
# [5] = target: Neu5Ac(a2-3)Gal(b1-4)GlcNAc6S
# In short: as §1
# [6] = target: Neu5Ac(a2-3)Gal(b1-4)[Fuc(a1-3)]GlcNAc
# In short: as §1
# [7] = target: Neu5Ac(a2-3)Gal(b1-4)[Fuc(a1-3)]GlcNAc(b1-2)Man
# In short: as §1
# [8] = target: Neu5Ac(a2-3)Gal(b1-4)[Fuc(a1-3)]GlcNAc(b1-3)Gal
# In short: as §1
# [9] = target: Neu5Ac(a2-3)Gal(b1-4)[Fuc(a1-3)]GlcNAc(b1-3)Gal(b1-4)GlcNAc
# In short: as §1
# [10] = target: Neu5Ac(a2-3)Gal(b1-4)[Fuc(a1-3)]GlcNAc(b1-3)Gal(b1-4)[Fuc(a1-3)]GlcNAc(b1-3)Gal(b1-4)[Fuc(a1-3)]GlcNAc
# In short: as §1
# [11] = target: Neu5Ac(a2-3)Gal(b1-4)[Fuc(a1-3)]GlcNAc(b1-3)GalNAc
# In short: as §1
# [12] = target: Neu5Ac(a2-3)Gal(b1-4)[Fuc(a1-3)]GlcNAc(b1-6)[Gal(b1-3)]GalNAc
# In short: as §1
# [13] = target: Neu5Ac(a2-3)Gal(b1-4)[Fuc(a1-3)]GlcNAc(b1-6)[Neu5Ac(a2-3)Gal(b1-3)]GalNAc
# In short: as §1
# [14] = target: Neu5Ac(a2-3)Gal(b1-4)[Fuc(a1-3)]GlcNAc6S
# In short: as §1
# [15] = target: Neu5Ac(a2-3)Gal6S(b1-4)GlcNAc
# In short: as §1
# [16] = target: Neu5Ac(a2-3)Gal6S(b1-4)[Fuc(a1-3)]GlcNAc
# In short: as §1
# Neu5Ac(a2-3)GalNAc = target: Neu5Ac(a2-3)GalNAc
# In short: as §1
# [17] = target: Neu5Ac(a2-3)GalNAc(b1-4)GlcNAc
# In short: as §1
# [18] = target: Neu5Ac(a2-3)[GalNAc(b1-4)]Gal(b1-4)Glc
# In short: as §1
# [19] = target: Neu5Ac(a2-3)[GalNAc(b1-4)]Gal(b1-4)GlcNAc
# In short: as §1
# [20] = target: Neu5Ac(a2-3)[GalNAc(b1-4)]Gal(b1-4)GlcNAc(b1-3)GalNAc
# In short: as §1
# [21] = target: Neu5Ac(a2-3)[Neu5Ac(a2-6)]GalNAc
# In short: as §1
# Neu5Ac(a2-6)Gal = target: Neu5Ac(a2-6)Gal
# In short: as §1
# [22] = target: Neu5Ac(a2-6)Gal(b1-3)GlcNAc(b1-3)[Gal(b1-4)GlcNAc(b1-6)]Gal(b1-4)Glc
# In short: as §1
# Neu5Ac(a2-6)Gal(b1-4)Glc = target: Neu5Ac(a2-6)Gal(b1-4)Glc
# In short: as §1
# [23] = target: Neu5Ac(a2-6)Gal(b1-4)GlcNAc
# In short: as §1
# [24] = target: Neu5Ac(a2-6)Gal(b1-4)GlcNAc(b1-2)Man
# In short: as §1
# [25] = target: Neu5Ac(a2-6)Gal(b1-4)GlcNAc(b1-2)Man(a1-3)Man(b1-4)GlcNAc(b1-4)GlcNAc
# In short: as §1
# [26] = target: Neu5Ac(a2-6)Gal(b1-4)GlcNAc(b1-2)Man(a1-3)[Gal(b1-4)GlcNAc(b1-2)Man(a1-6)]Man(b1-4)GlcNAc(b1-4)GlcNAc
# In short: as §1
# [27] = target: Neu5Ac(a2-6)Gal(b1-4)GlcNAc(b1-2)Man(a1-3)[GlcNAc(b1-2)Man(a1-6)]Man(b1-4)GlcNAc(b1-4)GlcNAc
# In short: as §1
# [28] = target: Neu5Ac(a2-6)Gal(b1-4)GlcNAc(b1-2)Man(a1-3)[GlcNAc(b1-4)][Neu5Ac(a2-6)Gal(b1-4)GlcNAc(b1-2)Man(a1-6)]Man(b1-4)GlcNAc(b1-4)GlcNAc
# In short: as §1
# [29] = target: Neu5Ac(a2-6)Gal(b1-4)GlcNAc(b1-2)Man(a1-3)[Man(a1-6)]Man(b1-4)GlcNAc(b1-4)GlcNAc
# In short: as §1
# [30] = target: Neu5Ac(a2-6)Gal(b1-4)GlcNAc(b1-2)Man(a1-3)[Neu5Ac(a2-3)Gal(b1-4)GlcNAc(b1-2)Man(a1-6)]Man(b1-4)GlcNAc(b1-4)GlcNAc
# In short: as §1
# [31] = target: Neu5Ac(a2-6)Gal(b1-4)GlcNAc(b1-2)Man(a1-3)[Neu5Ac(a2-6)Gal(b1-4)GlcNAc(b1-2)Man(a1-6)]Man(b1-4)GlcNAc(b1-4)GlcNAc
# In short: as §1
# [32] = target: Neu5Ac(a2-6)Gal(b1-4)GlcNAc(b1-2)Man(a1-3)[Neu5Ac(a2-6)Gal(b1-4)GlcNAc(b1-2)Man(a1-6)]Man(b1-4)GlcNAc(b1-4)[Fuc(a1-6)]GlcNAc
# In short: as §1
# [33] = target: Neu5Ac(a2-6)Gal(b1-4)GlcNAc(b1-2)Man(a1-6)Man(b1-4)GlcNAc(b1-4)GlcNAc
# In short: as §1
# [34] = target: Neu5Ac(a2-6)Gal(b1-4)GlcNAc(b1-2)Man(a1-6)[Gal(b1-4)GlcNAc(b1-2)Man(a1-3)]Man(b1-4)GlcNAc(b1-4)GlcNAc
# In short: as §1
# [35] = target: Neu5Ac(a2-6)Gal(b1-4)GlcNAc(b1-2)Man(a1-6)[GlcNAc(b1-2)Man(a1-3)]Man(b1-4)GlcNAc(b1-4)GlcNAc
# In short: as §1
# [36] = target: Neu5Ac(a2-6)Gal(b1-4)GlcNAc(b1-2)Man(a1-6)[Man(a1-3)]Man(b1-4)GlcNAc(b1-4)GlcNAc
# In short: as §1
# [37] = target: Neu5Ac(a2-6)Gal(b1-4)GlcNAc(b1-2)[Neu5Ac(a2-6)Gal(b1-4)GlcNAc(b1-4)]Man(a1-3)[GlcNAc(b1-4)][Neu5Ac(a2-6)Gal(b1-4)GlcNAc(b1-2)[Neu5Ac(a2-6)Gal(b1-4)GlcNAc(b1-6)]Man(a1-6)]Man(b1-4)GlcNAc(b1-4)GlcNAc
# In short: as §1
# [38] = target: Neu5Ac(a2-6)Gal(b1-4)GlcNAc(b1-2)[Neu5Ac(a2-6)Gal(b1-4)GlcNAc(b1-4)]Man(a1-3)[GlcNAc(b1-4)][Neu5Ac(a2-6)Gal(b1-4)GlcNAc(b1-4)Man(a1-6)]Man(b1-4)GlcNAc(b1-4)GlcNAc
# In short: as §1
# [39] = target: Neu5Ac(a2-6)Gal(b1-4)GlcNAc(b1-2)[Neu5Ac(a2-6)Gal(b1-4)GlcNAc(b1-6)]Man(a1-6)[Neu5Ac(a2-6)Gal(b1-4)GlcNAc(b1-2)Man(a1-3)][GlcNAc(b1-4)]Man(b1-4)GlcNAc(b1-4)GlcNAc
# In short: as §1
# [40] = target: Neu5Ac(a2-6)Gal(b1-4)GlcNAc(b1-3)Gal(b1-3)GlcNAc
# In short: as §1
# [41] = target: Neu5Ac(a2-6)Gal(b1-4)GlcNAc(b1-3)Gal(b1-4)GlcNAc
# In short: as §1
# [42] = target: Neu5Ac(a2-6)Gal(b1-4)GlcNAc(b1-3)Gal(b1-4)GlcNAc(b1-2)Man(a1-3)[Neu5Ac(a2-6)Gal(b1-4)GlcNAc(b1-3)Gal(b1-4)GlcNAc(b1-2)Man(a1-6)]GalNAc
# In short: as §1
# [43] = target: Neu5Ac(a2-6)Gal(b1-4)GlcNAc(b1-3)Gal(b1-4)GlcNAc(b1-3)Gal(b1-4)GlcNAc
# In short: as §1
binder,measurement,setting,value
"Epa1-NP-mutant-Y228W (Candida glabrata), Q6VBJ0 (protein) MILNPALFLNKCVCIYTTLILLLLTNGGYATSSNDISLASKDPTTFPLGCSPDITTPKKGLSMELYSYDFRKKGSYPCWDAAYLDPNYPRTGYKSHRLLAKVDGVTGNINFYYHATKGCTPQLGHLPASYNYPKPLTMTNFTMLLYGYFRPKVTGFHTFTISADDLLFVNFGAGNAFDCCRRDSSADHFGNYQAYAIWGSKTAKDELTVHLDAGVYYPIRLFYNNREWDGALSFTFKTESNENTVSDFSEYFFSLDDTEEGCPGLISYDSSCASVKTSKIIGIDYHTETPNENLVPITKTIYHLGIPCTGTTTTPLCGSGFYDPLANKCVTINTSSTSSVTKTTSHTTSKEVSFHSSISSQKTLIPKSIPSPYGPIKSQSIPTEMETSSEISSSEYAFSDVISTPSHSPYTKKHSSLNSSSYTSTVIHSLTSYSISQGIFSTSLSEQNITSKSSTDKFSTATSMSNNITQSSIIISQFSTNNENYTTTSMHTSSDKISTETLNNSISTTTSILFSNSSTILKNNTTIISSDKDTHYHPVNPTIVCSTNKTEIICASITQPSISNSNNHWSSSVLKFNSTTVRSTLPSSAGSNETSINVPFSSSTESNTSTSSTSTSNSKMVRSTLPSSAGSNETSISVPFSSSTESNTSTSSTSTSNSKMVRSTLPSSAGSNETSINVPFSSSTESNTSTSSTSTSNSKTVRSTPFSSAGIIMTSLSQRNNKSASSYASSNSKCYNTADSCRKVHSTPSYLLTSSYTSEGVDYDCSLVSTKLKINDTNCVNNKHTTKSCLKTSVTTTIPTLEIKTARKSSSNTIGLHSYPTSSPNKSISSAPIIGYISSFKTIKTASPSYQTSDLTTITTITSLNNPGSTAVENTHESNDKSRKTSSNDISSKHSVIKETKDAVESSNKSHQTNTLKCSSIIIASSSHNSYESLGGTTLTLTLSKVYSPQNNDTLPFLEISEVNPSRTVLPESSKMMQYLTSTEERNKTARNTIATNIVSISTFHFEGEGNAIRMGYTQLLLMLIGIIVMNIGT",glycan array binding signal (z-score),[1],-0.316
same,glycan array binding signal (z-score),[2],-0.066
same,glycan array binding signal (z-score),[3],0.589
same,glycan array binding signal (z-score),[4],-0.277
same,glycan array binding signal (z-score),[5],-0.107
same,glycan array binding signal (z-score),[6],-0.259
same,glycan array binding signal (z-score),[7],-0.422
same,glycan array binding signal (z-score),[8],-0.343
same,glycan array binding signal (z-score),[9],-0.028
same,glycan array binding signal (z-score),[10],-0.222
same,glycan array binding signal (z-score),[11],0.359
same,glycan array binding signal (z-score),[12],0.153
same,glycan array binding signal (z-score),[13],0.067
same,glycan array binding signal (z-score),[14],-0.314
same,glycan array binding signal (z-score),[15],-0.251
same,glycan array binding signal (z-score),[16],-0.378
same,glycan array binding signal (z-score),Neu5Ac(a2-3)GalNAc,-0.044
same,glycan array binding signal (z-score),[17],-0.172
same,glycan array binding signal (z-score),[18],-0.236
same,glycan array binding signal (z-score),[19],-0.228
same,glycan array binding signal (z-score),[20],-0.218
same,glycan array binding signal (z-score),[21],-0.195
same,glycan array binding signal (z-score),Neu5Ac(a2-6)Gal,-0.203
same,glycan array binding signal (z-score),[22],-0.113
same,glycan array binding signal (z-score),Neu5Ac(a2-6)Gal(b1-4)Glc,-0.162
same,glycan array binding signal (z-score),[23],-0.054
same,glycan array binding signal (z-score),[24],0.041
same,glycan array binding signal (z-score),[25],-0.018
same,glycan array binding signal (z-score),[26],-0.285
same,glycan array binding signal (z-score),[27],-0.017
same,glycan array binding signal (z-score),[28],-0.08
same,glycan array binding signal (z-score),[29],0.235
same,glycan array binding signal (z-score),[30],-0.168
same,glycan array binding signal (z-score),[31],-0.111
same,glycan array binding signal (z-score),[32],-0.238
same,glycan array binding signal (z-score),[33],-0.196
same,glycan array binding signal (z-score),[34],-0.14
same,glycan array binding signal (z-score),[35],-0.279
same,glycan array binding signal (z-score),[36],-0.244
same,glycan array binding signal (z-score),[37],-0.298
same,glycan array binding signal (z-score),[38],-0.028
same,glycan array binding signal (z-score),[39],0.12
same,glycan array binding signal (z-score),[40],-0.123
same,glycan array binding signal (z-score),[41],-0.311
same,glycan array binding signal (z-score),[42],0.042
same,glycan array binding signal (z-score),[43],-0.116
